The list shows a part of the results. Sequences were assembled here from the parent chain. Inactive controls read about 0.05.
B1: TEV protease; numbered along this chain (parent)
chain: MGESLFKGPRDYNPISSSICHLTNESDGHTTSLYGIGFGPFIITNKHLFRRNNGTLVVQSLHGVFKVKDTTTLQQHLVDGRDMIIIRMPKDFPPFPQKLKFREPQREERICLVTTNFQTKSMSSMVSDTSCTFPSGDGIFWKHWIQTKDGQCGSPLVSTRDGFIVGIHSASNFTNTNNYFTSVPKNFMELLTNQEAQQWVSGWRLNADSVLWGGHKVFMVKPEEPFQPVKEATQL

Variants of: B1
Experiment: raw area under fraction-flipped curve 0-4 h after induction (AUC4h, not background-subtracted), DNA-recorder readout of cleavage of the substrate (dimensionless); higher = more cleavage of the substrate by the protease variant
Conditions: temperature: 34 °C; time window: 0-4 h after rhamnose induction
Method: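 In vivo DNA recorder in E. coli TOP10(DE3) ΔrhaA at 34 °C. Each TEVp single-site mutant (parent TEVp 0) is paired with a single-site variant of the 7-mer TEVs (canonical ENLYFQ|S). The substrate sits between flexible linkers in a Bxb1-sfGFP-TEVs-SsrA fusion, so cleavage stabilises Bxb1 and speeds flipping of a recombination array, read by NGS. The value is the raw area under the fraction-flipped curve over 0-4 h after rhamnose induction (AUC4h), with ≥20 reads per time point. It is not background-subtracted; inactive controls average about 0.047.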
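Note: Bxb1 expression induced with 0.2% (w/v) L-rhamnose at OD600 near 0.5, cultures sampled hourly, flipped fraction per protease–substrate barcode pair counted by paired-end Illumina sequencing.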

Row | Variant | area with substrate ENLYAQS | area with substrate ENLYDQS | area with substrate ENLYEQS | area with substrate ENLYGQS | area with substrate ENLYHQS | area with substrate ENLYKQS | area with substrate ENLYMQS | area with substrate ENLYPQS | area with substrate ENLYQQS | area with substrate ENLYRQS | area with substrate ENLYWQS | area with substrate ENLYYQS | area with substrate ENLYIQS | area with substrate ENLYNQS | area with substrate ENLYVQS | area with substrate ENLYCQS | area with substrate ENLYLQS | area with substrate ENLYSQS | area with substrate ENLYTQS
1 | K216P | 0.0674 | 0.0693 | 0.0768 | 0.0391 | 0.0652 | 0.0651 | 0.0782 | 0.05 | 0.077 | 0.0786 | 0.0758 | 0.0523 | – | – | – | – | – | – | –
2 | K216V | 0.0648 | 0.0608 | 0.0706 | – | 0.0569 | 0.0589 | 0.0956 | 0.0804 | 0.0412 | 0.046 | 0.0869 | 0.115 | 0.105 | 0.0624 | 0.106 | – | – | – | –
3 | V217W | 0.061 | 0.071 | 0.0458 | 0.0642 | 0.0697 | 0.0636 | 0.0493 | – | 0.0597 | 0.0609 | 0.0543 | 0.0648 | – | 0.0656 | – | – | – | – | –
4 | V220Q | 0.07 | 0.0651 | 0.0503 | 0.0609 | 0.0748 | 0.077 | 0.0872 | 0.0674 | 0.0608 | 0.0629 | 0.0882 | 0.0812 | 0.13 | 0.0663 | 0.0911 | 0.0802 | 0.0876 | 0.0771 | 0.0902
5 | K221E | 0.0695 | 0.0679 | 0.0608 | 0.0623 | 0.0693 | 0.0591 | – | 0.0619 | 0.0676 | 0.0577 | 0.0781 | 0.0492 | 0.0825 | 0.0598 | 0.0562 | – | – | 0.0613 | –
6 | E223L | 0.0674 | 0.0609 | 0.0577 | 0.0614 | 0.0614 | 0.0615 | 0.0945 | 0.0824 | 0.0671 | 0.0532 | 0.0792 | 0.0643 | 0.146 | 0.062 | 0.102 | 0.0672 | 0.0682 | 0.0684 | –
7 | E224D | 0.1 | 0.0598 | 0.0903 | 0.0663 | 0.083 | 0.0613 | 0.0775 | – | – | 0.0467 | 0.171 | 0.0613 | 0.133 | 0.0717 | – | 0.0662 | 0.0845 | – | –
8 | E224L | 0.0668 | 0.057 | – | 0.0722 | 0.0787 | 0.0674 | – | 0.0728 | 0.0548 | 0.0452 | 0.0668 | 0.0768 | – | 0.0716 | – | 0.0704 | 0.0919 | 0.0498 | –
9 | E224Q | 0.073 | 0.0576 | 0.0661 | 0.062 | 0.0781 | 0.0573 | 0.0914 | 0.0851 | 0.0625 | – | 0.0819 | 0.0718 | 0.129 | 0.0771 | 0.0937 | 0.0803 | 0.106 | – | –
10 | A232L | 0.069 | 0.0726 | – | 0.0619 | 0.0608 | 0.0443 | 0.0837 | 0.0701 | 0.0563 | 0.0681 | – | 0.0699 | 0.119 | 0.0685 | 0.0683 | 0.0662 | – | – | –
11 | A232Q | 0.105 | 0.0604 | 0.061 | 0.0692 | – | 0.0602 | 0.0871 | 0.0743 | 0.0553 | 0.0616 | 0.102 | 0.0591 | 0.101 | 0.0725 | 0.0964 | – | 0.0932 | – | –
12 | Y12I | – | 0.0576 | 0.064 | 0.065 | 0.0691 | 0.0551 | 0.0938 | 0.0738 | 0.0649 | – | 0.078 | – | 0.0863 | 0.0729 | 0.134 | 0.0678 | – | 0.0626 | 0.0885
13 | Y12Q | – | 0.0524 | 0.0812 | 0.0634 | 0.0695 | 0.0497 | – | 0.0853 | 0.0659 | 0.0613 | 0.0646 | – | 0.125 | 0.072 | 0.11 | 0.0861 | – | 0.0739 | –
14 | Y12V | – | 0.0598 | 0.067 | – | 0.066 | 0.064 | 0.0912 | 0.056 | 0.0679 | 0.0611 | 0.0894 | 0.0588 | 0.11 | 0.0619 | 0.0951 | 0.0973 | 0.135 | 0.0734 | 0.0822
15 | N13C | – | 0.0677 | 0.0654 | 0.0668 | 0.0683 | 0.0814 | 0.0864 | 0.0654 | 0.0611 | 0.0681 | – | 0.0762 | 0.128 | 0.064 | 0.096 | 0.122 | – | 0.0657 | 0.077
16 | I15F | – | – | 0.0641 | 0.0583 | 0.0714 | 0.0393 | 0.0776 | 0.0617 | 0.0454 | 0.0586 | 0.0738 | – | 0.132 | 0.0637 | 0.0905 | 0.0794 | 0.0768 | 0.0705 | –
17 | I15L | – | 0.0639 | 0.0635 | 0.0639 | 0.0626 | 0.0625 | 0.0781 | 0.0623 | 0.072 | 0.0717 | 0.0808 | 0.0695 | 0.137 | 0.0663 | 0.124 | 0.0854 | 0.0755 | – | 0.0676
18 | S17C | – | 0.0658 | 0.0647 | 0.0679 | 0.0675 | – | 0.0889 | 0.0764 | 0.0813 | 0.0746 | 0.0803 | 0.0628 | 0.138 | 0.0576 | 0.118 | 0.0863 | 0.0938 | – | 0.0783
19 | S17G | – | 0.0637 | 0.0731 | 0.0659 | 0.0724 | 0.0575 | 0.0859 | 0.0894 | 0.0487 | 0.0624 | 0.0813 | 0.0846 | 0.124 | 0.0711 | 0.119 | 0.0473 | 0.0854 | 0.0788 | 0.0886
20 | I19G | – | 0.0643 | 0.0639 | 0.064 | 0.0536 | 0.0547 | – | 0.0574 | 0.061 | 0.0475 | 0.063 | 0.0507 | – | 0.0664 | 0.0652 | 0.0695 | 0.0685 | 0.0719 | –
21 | N24A | – | – | 0.044 | 0.0601 | 0.0736 | 0.0549 | 0.0744 | 0.0681 | 0.0439 | 0.0726 | 0.0641 | 0.0702 | – | 0.0633 | 0.0939 | 0.0587 | 0.0775 | 0.086 | 0.085
22 | N24G | – | 0.0593 | 0.0607 | 0.0652 | 0.0632 | 0.0616 | 0.0654 | 0.0441 | 0.0614 | 0.0638 | 0.0606 | 0.0619 | 0.0759 | 0.065 | 0.0756 | 0.075 | 0.0567 | 0.0632 | 0.0644
